# Values joined by “and” are separate entries in the source; they are usually repeats but may differ in a detail not shown here. Identical values can stand only once. Hit rate of the full screen: of about 390,000 compounds, about 4,000 (1%) were called active. The inconclusive results got no clear call from the source; some entries with a clear call stand among them for comparison. Calls follow the shape of the dose curve; as a rule, active = well fitted inhibition curve with a large enough effect; inconclusive = small, poorly fitted or top-dose-only effect; inactive = no such curve, though single readings can be large or run the other way. Potencies beside an inconclusive call are fits to weak or partial responses and may not hold up.
# Biological target: Thioredoxin reductase 1, cytoplasmic (Rattus norvegicus) (UniProt O89049)
# Assay: qHTS Assay for Inhibitors of Mammalian Selenoprotein Thioredoxin Reductase 1 (TrxR1): qHTS; also: nearly all actives have a fitted effect of over 65% in size
# Details: recombinant rTrxR1, NADPH fluorescence consumption, selenite substrate; series mostly up to 114 µM; activity change, negative = inhibition: at the top concentration
# How it was run: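 Rat TrxR1 (90 nM in the dispensed reagent) was pre-reduced with 400 uM NADPH for 5 min at room temperature, then incubated with compound for 15 min. After 400 uM selenite was added, NADPH fluorescence (Ex 340/Em 450 nm) was followed for 8 min.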
# % is scaled to controls: 0 for no effect and ±100 for the full control effect; potency is read from the fitted curve at half-maximal effect; tags tell the direction and shape of the fitted curve.
# Sequence of UniProt O89049 (O89049 whole entry, looked up): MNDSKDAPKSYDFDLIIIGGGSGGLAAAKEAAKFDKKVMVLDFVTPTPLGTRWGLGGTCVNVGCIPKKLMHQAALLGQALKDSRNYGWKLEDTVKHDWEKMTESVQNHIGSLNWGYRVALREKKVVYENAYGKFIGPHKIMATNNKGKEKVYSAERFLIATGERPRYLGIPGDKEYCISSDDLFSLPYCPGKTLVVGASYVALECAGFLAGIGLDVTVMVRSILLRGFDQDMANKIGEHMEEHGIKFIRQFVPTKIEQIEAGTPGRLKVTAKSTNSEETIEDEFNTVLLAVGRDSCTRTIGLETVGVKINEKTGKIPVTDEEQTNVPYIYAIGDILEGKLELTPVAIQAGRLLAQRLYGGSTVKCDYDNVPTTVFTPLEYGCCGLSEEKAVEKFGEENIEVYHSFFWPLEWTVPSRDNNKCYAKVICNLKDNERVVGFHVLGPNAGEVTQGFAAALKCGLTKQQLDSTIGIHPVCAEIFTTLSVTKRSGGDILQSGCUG
Structure (SMILES),"activity change, negative = inhibition",Potency
CC(=O)N1CCN(c2ccc(NC(=O)c3ccc(N4CCCC4)c([N+](=O)[O-])c3)cc2Cl)CC1,inactive: 5.76% [at 57.1 µM],
Cc1oc2ccc(OCc3c(F)cccc3Cl)cc2c1C(=O)O,inactive: 7.14%,
Cc1cc(C)nc(SCc2nnc(SCC(=O)NCc3ccco3)n2-c2ccccc2)n1,,active: 50.1 µM
COc1ccc(/C=N\NC(=O)c2ccc(F)cc2)cc1COc1ccccc1C(N)=O,inactive: 22.3%,
COc1cc(/C=N/NC(=O)c2cc(O)cc(O)c2)ccc1OC(=O)c1ccccc1,inactive: 4.39%,
Cc1ccccc1-n1c(=O)cc(N2CCC3(CC2)OCCO3)[nH]c1=O,,"inconclusive: 56.2 µM [inhibitor, partial curve, poor fit]"
CCOC(=O)C1=C(C)N(c2ccccc2)C(=O)/C1=C\c1ccco1,,"inconclusive: 56.2 µM [inhibitor, partial curve, poor fit]"
COCC(=O)N(CCc1ccc(OC)c(OC)c1)Cc1nc2ccccc2c(=O)[nH]1,inactive: 23.4%,
S=c1nc(-c2sccc2OCc2ccc(Cl)cc2Cl)[nH][nH]1,,"inconclusive: 20 µM [inhibitor, single point]"
CCOC(=O)NCc1ccc2[nH]c(C)cc2c1,,"inconclusive: 22.4 µM [inhibitor, partial curve, poor fit]"
CCN1CC(CN(C)Cc2nc(-c3ccc(OC)c4ccccc34)oc2C)CC1=O (stereo unspecified),,"inconclusive: 70.8 µM [inhibitor, partial curve, poor fit]"
CCC(C)(C)c1ccc(OCCCC[n+]2cccc(C)c2C)c(C(C)(C)CC)c1,inactive: 1.16%,
COc1ccc(C(=O)C[n+]2cn(C(F)F)c3ccccc32)c(F)c1,,"inconclusive: 25.1 µM [inhibitor, single point]"
CC1(C)CC(=O)c2c(oc3cc(O)c(O)cc23)C1,,"inconclusive: 79.4 µM [inhibitor, partial curve, poor fit]"
COc1ccc(C)cc1-n1c(-c2ccncc2)n[nH]c1=S,,"inconclusive: 3.55 µM [inhibitor, partial curve, poor fit]"
CN(c1ccccc1)c1ccc(/C=N/N2CCOCC2)cc1,,"inconclusive: 35.5 µM [inhibitor, partial curve, poor fit]"
Cc1ccc(C2C3=C(CCCC3=O)N=C3c4ccccc4C(=O)C32)cc1 (stereo unspecified),,"inconclusive: 14.1 µM [inhibitor, full curve, poor fit]"
O=C(CNC(=O)c1ccco1)OCc1cccc(Cl)c1,,"inconclusive: 31.6 µM [inhibitor, partial curve, poor fit]"
Cc1ccc(CNC(=O)CS(=O)Cc2nc(-c3cccs3)oc2C)cc1 (stereo unspecified),,"inconclusive: 20 µM [inhibitor, partial curve]"
C/C(Cn1nnc([N+](=O)[O-])n1)=N\NC(=O)c1ccccc1O,inactive: 31.8% [at 57.1 µM],
O=C(NCC1CCCO1)c1cc(-c2ccco2)nc2ccccc12 (stereo unspecified),inactive: 45.8%,
Cc1cc(-c2nc3ccccc3s2)ccc1NC(=O)c1cc(Cl)ccc1Cl,inactive: 7.04%,
CCNc1ccc(Br)cc(C(=O)/C=C/c2c(Cl)cccc2Cl)c1=O,,"inconclusive: 12.6 µM [inhibitor, partial curve, poor fit]"
Fc1ccc(/C=N/NC(=S)Nc2ccc(Cl)cc2Cl)cc1,inactive: 12.5%,

Structure (SMILES),"activity change, negative = inhibition",Potency
COc1ccccc1CCNC(=O)C1CCC(=O)N(Cc2ccccc2OC)C1 (stereo unspecified),,"inconclusive: 79.4 µM [inhibitor, single point]"
CC1=C(C#N)C(c2cccnc2)C2=C(CC(C)(C)CC2=O)N1 (stereo unspecified),,"inconclusive: 70.8 µM [inhibitor, single point]"
Cc1cccc(N(Cc2cc3ccccc3[nH]c2=O)S(C)(=O)=O)c1,,"inconclusive: 100 µM [inhibitor, single point]"
CC(C)c1nnc(NC(=O)c2nc(S(=O)(=O)Cc3ccccc3)ncc2Cl)s1,,active: 12.6 µM and active: 50.1 µM
Cn1c(=O)n(CCCc2ccccc2)c(=O)c2c1nc1n2CCN1c1ccccc1,inactive: 10.3%,
CC1=CC(=O)C(C(C)C)=C/C1=N/OC(=O)c1cccc([N+](=O)[O-])c1,,active: 12.6 µM
O=S(=O)(CC(CN1CCCC1)N1CCCC1)c1ccc2ccccc2c1 (stereo unspecified),,active: 8.91 µM
O=c1[nH]c(=S)c2[nH]cnc2[nH]1,inactive: -35.4%,
O=C1CN(c2ccccc2)C(=S)N1C(=O)c1ccccc1,,"inconclusive: 56.2 µM [inhibitor, partial curve]"
COc1ccc(/C=C/C(=O)NC(=S)Nc2ccc(S(=O)(=O)Nc3nccnc3OC)cc2)cc1,,"inconclusive: 28.2 µM [inhibitor, single point]"
CN1c2ccccc2C(O)=C(C(=S)Nc2ccccc2)S1(=O)=O,,"inconclusive: 44.7 µM [inhibitor, partial curve]"
C/C=C(\C)CN1CCCC(N(C)CCc2ccc(OC)c(OC)c2)C1 (stereo unspecified),,"inconclusive: 14.1 µM [inhibitor, single point]"
Cc1ccc2c(c1C)-c1c(ccc(C)c1C)C(=O)C2=O,,"inconclusive: 70.8 µM [inhibitor, partial curve, poor fit]"
CC(C)Cc1ccc(C(C)CC2=CCC(CN(C)C)C2=O)cc1 (stereo unspecified),,active: 44.7 µM
O=C(O)CCN1C(=O)/C(=C/c2ccc(-c3nc4ccccc4s3)o2)SC1=S,,"inconclusive: 79.4 µM [inhibitor, single point]"
Cc1ccc(C(=O)NC(=S)Nc2ccccc2C(F)(F)F)cc1C,inactive: -33.9%,
Cc1[nH]n(-c2nc(-c3cccc([N+](=O)[O-])c3)cs2)c(=O)c1C,,"inconclusive: 89.1 µM [inhibitor, single point]"
CCOc1ccc(-c2nnc(N)s2)cc1,inactive: -8.78%,
Cc1ccc(/C=N/NC(=S)NC2CCCCC2)o1,,"inconclusive: 89.1 µM [inhibitor, single point]"
N#C/C(=C\c1ccncc1)C(N)=O,,"inconclusive: 89.1 µM [inhibitor, partial curve, poor fit]"
CC(C)C1Nc2ccc(S(N)(=O)=O)cc2C2C=CCC21 (stereo unspecified),,"inconclusive: 3.16 µM [inhibitor, partial curve, poor fit]"
CCOc1ccc(NC(=S)NNC(=S)Nc2cccc(C(F)(F)F)c2)cc1,,"inconclusive: 31.6 µM [inhibitor, partial curve, poor fit]"
NS(=O)(=O)c1ccc(NC2=CC(=O)C(=O)c3ccccc32)cc1,,"inconclusive: 44.7 µM [inhibitor, partial curve, poor fit]"
CCc1ccc(-n2nc(CO)c(C(=O)NCCCCc3ccccc3)n2)cc1,,"inconclusive: 89.1 µM [inhibitor, single point]"

Structure (SMILES),"activity change, negative = inhibition",Potency
CC(C)(C)c1cc[n+](-c2[nH]c(=O)sc2/C=N/NC(=O)c2ccccc2[O-])cc1,inactive: 5.73%,
CC(=O)NC(CSC(CC(=O)c1ccco1)c1ccc(C)cc1)C(=O)O (stereo unspecified),,"inconclusive: 50.1 µM [inhibitor, partial curve, poor fit]"
O=C(NNC(=S)Nc1ccc(Br)cc1)c1ccc(N2CCOCC2)c([N+](=O)[O-])c1,,"inconclusive: 12.6 µM [inhibitor, partial curve, poor fit]"
Cc1cccc(C)c1NC(=O)CN(C)CC(=O)Nc1sc2c(c1C(N)=O)CCC2,,"inconclusive: 25.1 µM [inhibitor, partial curve]"
Cn1c(=O)c2ccccc2n2c(=S)[nH]nc12,inactive: -1.38% [at 57.1 µM],
C=C(/C=C/c1ccc(N(C)C)cc1)c1nc2ccccc2s1,inactive: -19.2%,
CNC(=S)N1CCN(c2cccc(OC)c2)CC1,inactive: -5.5%,
Cc1cc(=O)oc2c3c(cc(OCC(=O)NCc4cccnc4)c12)OC(C)(C)CC3,,"inconclusive: 89.1 µM [inhibitor, single point]"
O=C(NC(Cc1ccccc1)C(=O)O)/C(=C\c1ccc(Cl)cc1)NC(=O)c1ccco1 (stereo unspecified),,"inconclusive: 56.2 µM [inhibitor, partial curve]"
CCC1C2CN(C(C)=O)CC=C2C(C#N)=C(N)C1(C#N)C#N (stereo unspecified),,"inconclusive: 70.8 µM [inhibitor, partial curve]"
CC1CCC(NC(=O)CCc2cn(Cc3ccc(F)cc3)c3ccccc23)CC1 (stereo unspecified),inactive: 27.5%,
Cc1[nH]c(SCC(=O)Nc2cc(S(C)(=O)=O)ccc2Cl)nc1Cc1ccccc1,,"inconclusive: 89.1 µM [inhibitor, single point]"
Cc1onc(-c2c(F)cccc2Cl)c1C(=O)Nc1sc2c(c1C(N)=O)CCC2,,"inconclusive: 10 µM [inhibitor, full curve]"
Cc1ccccc1C(=O)NCc1ccc2c(c1)CCN2C(=O)c1ccc(F)cc1,inactive: -3.09% [at 57.1 µM],
COc1ccc(C(C)=O)cc1COC(=O)c1cc(C)nc2ccccc12,,"inconclusive: 56.2 µM [inhibitor, partial curve]"
Nc1cccc(/C=C2\C=Cc3ccccc32)c1,inactive: 0.415%,
O=C(Nc1ccc2nc(-c3ccco3)c(-c3ccco3)nc2c1)NC1CC1,,active: 4.47 µM
Cc1cc(NC(=O)CN2C(=O)CC(c3ccco3)Sc3ccccc32)no1 (stereo unspecified),,"inconclusive: 79.4 µM [inhibitor, single point]"
O=S(=O)(Nc1nc2ccc(S(=O)(=O)N3CCCC3)cc2s1)c1ccc(F)cc1,inactive: 5.14%,
O=C(CCS(=O)(=O)c1nc(-c2cccs2)cc(C(F)(F)F)n1)Nc1cccc(O)c1,,active: 17.8 µM
O=C(NCc1cc(F)ccc1F)C1CCC(=O)N(C2CCCCCC2)C1 (stereo unspecified),inactive: 6.94%,
O=C(Nc1nc(-c2ccc(Cl)s2)cs1)c1ccco1,inactive: 17.8% [at 57.1 µM],
CCOC(=O)c1c2c(n(-c3ccc(OC)cc3)c1C)C(=O)C(=O)c1ccccc1-2,,"inconclusive: 89.1 µM [inhibitor, single point]"

# From PubChem BioAssay AID588453 (National Center for Advancing Translational Sciences (NCATS), 2011)
